The molecules below were run against PRMT5/MEP50 Complex (Homo sapiens (Human), UniProt O14744) (assay: PRMT5 inhibition based on TR-FRET assay). Conditions: 32 nM PRMT5:MEP50, 50 nM Histone-H4 peptide, 1 μM SAM.
Format: biochemical
Text: PRMT5 Inhibition Based on TR-FRET Assay:
Protein arginine methyltransferase 5 (PRMT5) is a type II arginine methyltransferase that catalyze mono- and symmetric demethylation on arginine residues of histone or non-histone proteins in presence of S-adenosylmethionine (AdoMet or SAM) a cofactor responsible for donating the methyl group. PRMT5 is reported to be overexpressed in several human cancers. To identify compounds that inhibit the PRMT5 and decrease its activity, a TR-FRET based assay has been established. Time-resolved fluorescence resonance energy transfer (TR-FRET) HTS assays are homogeneous proximity assays where the interaction of two dye-labeled binding partners is detected by the energy transfer between a donor and an acceptor dye and the subsequent light emission by the acceptor dye. PRMT5 catalyzes Histone H4 peptide which is biotin tagged to the Lysine amino acid at carboxyl end, in presence of S-adenosyl-1-methionine (SAM) to methylate the peptide. The antibody specific to mono methylated H4 peptide (H4R3) with Ig conjugate binds to the methylated peptide, indirectly binding to the Europium lanthanide. SureLight Allophycocyanin-Streptavidin binds to the biotin tag of the peptide, therefore accepting the energy transferred from the Europium lanthanide. This energy transfer between Europium to SureLight Allophycocyanin is a direct measure of the activity/inhibition of the PRMT5 enzyme.
Assay buffer: 20 mM BICINE (pH 7.6), 25 mM NaCl, 2 mM DTT, 0.01% Tween-20 and 0.01% BSA.
The compound dilutions were prepared as 7.5% DMSO stock solutions in assay buffer. To 2 μL (7.5×) of test compound, 5 μL of PRMT5 enzyme prepared in assay buffer (Final concentration of 32 nM in 15 μL reaction volume) was added and allowed for 30 minutes pre-incubation time in a white polystyrene 384-well plate at room temperature. […] The plates were then read on Victor-3 with Excitation at 340 nm and Emissions collected at 615 and 665 nm in TR-FRET protocol. […]

Chain of UniProt O14744 (O14744 whole entry): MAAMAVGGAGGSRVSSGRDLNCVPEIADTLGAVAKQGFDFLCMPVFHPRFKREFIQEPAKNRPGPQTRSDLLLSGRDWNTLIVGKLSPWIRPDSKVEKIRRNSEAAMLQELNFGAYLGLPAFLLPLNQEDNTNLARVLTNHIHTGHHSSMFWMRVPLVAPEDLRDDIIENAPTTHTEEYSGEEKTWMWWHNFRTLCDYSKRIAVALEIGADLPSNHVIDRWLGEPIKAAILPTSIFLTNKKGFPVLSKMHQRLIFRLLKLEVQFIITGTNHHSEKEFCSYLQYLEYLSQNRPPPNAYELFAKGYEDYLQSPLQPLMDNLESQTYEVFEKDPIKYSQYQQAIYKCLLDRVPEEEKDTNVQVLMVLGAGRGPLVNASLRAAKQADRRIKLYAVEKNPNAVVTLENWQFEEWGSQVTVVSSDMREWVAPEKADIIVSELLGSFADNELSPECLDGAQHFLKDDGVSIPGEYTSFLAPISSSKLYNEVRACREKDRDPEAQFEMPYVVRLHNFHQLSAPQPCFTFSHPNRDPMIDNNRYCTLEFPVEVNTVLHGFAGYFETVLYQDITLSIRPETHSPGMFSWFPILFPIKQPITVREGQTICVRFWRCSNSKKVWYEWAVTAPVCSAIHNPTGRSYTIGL
Chain of UniProt O14744 (Q9BQA1 whole entry partner): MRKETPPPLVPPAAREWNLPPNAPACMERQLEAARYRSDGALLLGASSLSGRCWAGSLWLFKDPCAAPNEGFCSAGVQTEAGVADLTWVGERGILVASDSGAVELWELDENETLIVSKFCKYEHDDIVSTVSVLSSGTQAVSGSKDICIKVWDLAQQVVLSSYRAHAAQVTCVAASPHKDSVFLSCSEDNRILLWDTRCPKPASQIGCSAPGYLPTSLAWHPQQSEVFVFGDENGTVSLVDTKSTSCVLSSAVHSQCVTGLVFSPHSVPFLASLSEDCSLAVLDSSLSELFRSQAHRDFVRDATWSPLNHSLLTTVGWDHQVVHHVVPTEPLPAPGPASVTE

| SMILES | IC50 |
| --- | --- |
| Cn1cnc2ccc(Cn3c(=O)n(CC(O)CN4CCc5ccccc5C4)c4ccccc43)cc21 (single isomer, unassigned) [Example 84a, 1-(3-(3,4-Dihydroisoquinolin-2(1H)-yl)-2-hydroxypropyl)-3-((1-methyl-1H-benzo[d]imidazol-6-yl)methyl)-1,3-dihydro-2H-benzo[d]imidazol-2-one] | 0.01 µM |
| N#Cc1ccc(Cn2ccn(CC(O)CN3CCc4ccccc4C3)c2=O)cc1 (single isomer, unassigned) [Example 82a, 4-((3-(3-(3,4-dihydroisoquinolin-2(1H)-yl)-2-hydroxypropyl)-2-oxo-2,3-dihydro-1H-imidazol-1-yl)methyl)benzonitrile] | 0.77 µM |
| Cn1cnc2ccc(Cn3c(=O)n(CC(O)CN4CCc5ccccc5C4)c4ccccc43)cc21 (racemic) [Example 84, 1-(3-(3,4-Dihydroisoquinolin-2(1H)-yl)-2-hydroxypropyl)-3-((1-methyl-H-benzo[d]imidazol-6-yl)methyl)-1,3-dihydro-2H-benzo[d]imidazol-2-one] | 0.07 µM |

From patent US11365205B2 (Aurigene Discovery Technologies Limited, priority 2018, dated 2022)
